For 56 variants, self-cleavage results are on record in the RNAGym collection of RNA variant scans (doi:10.7554/elife.90254).

B1: LINE1-mini (parent)
chain: GGCAGAGCUCAACACAGCGUGGCAAAGUGGCUGUGGCUAGACUGCC

The source gives no read counts; variants with many changes may rest on few reads.

Variants of B1 are the subject of the series. Kind of series: self-cleavage, relative activity (ratio to wild type); higher = more cleavage; in vitro, sequencing; the parent is a self-cleaving ribozyme.
As to GGUGGAGCUCAACACAUCGAGGCAAAGUGGCUGUGGCUAUACUGCC, the self-cleavage was 0.03.

Regarding GGGAGAGCUCAACACAGCGUGGCAAAGUGGCUGGGUCUAGACUGCC, the self-cleavage was 0.1.

With GGUCGAUCUCAACACAGCGUGGCAAAGUGGCUGUGGCUAGACUGCC, the self-cleavage is 0.25.

Consider GGUGGCGCUCCACACAGCGUGGCAAAGUGGCUGUGGCUCGACUGCC, for which the self-cleavage amounted to 0.01.

With GGGAGAGCUCAACACAGCGUGGCAAAGUGGCAGUGUCUAGACUGCC, the self-cleavage was determined as 0.09.

For GGGAGAGCUCAACACAGCGUGGCAAAGUGGCUGUGGCUAGACUACU, the self-cleavage was found to be 0.04.

In the case of GGGAGAGCUCAACACAGCGUGGCAAAGUGGCUGUGCGUAGACUGCC, the self-cleavage worked out at 0.08.

Take GGGAGAGCUCAACACAGCGUGGCAAAGUAGCUGUGUAUAGUAUGAC: the self-cleavage turned out to be 0.03.

For GGGAGAGCUCAACACAGCGUGGCAAAGUGUCUGUGGCUAGACCGCC, the self-cleavage stood at 0.01.

For GGUCGAGUUCAACACAGCGUGGCAAAGUGGCUGUGGCUAGACUGCC, the self-cleavage came to 0.83.

With GGUCGAUCUCAACACUGCGUGGCAAAGUGGCUGUGGCUAGACUGCC, the self-cleavage was 1.23.

Take GGGAGAGCACAACACUGCGUGGCAAAGUUGCUGUGGUUAGACUGCC: the self-cleavage is 0.06.

Regarding GGUGGAGCUCAACACAGGGUGUCAAAGUGGCUGUGCCUAGACUGCC, the self-cleavage came out at 0.03.

For GGGAGAGCUCAACACAGCGUGGCAAAGUGGCUGGUGCUAGACUGCC, the self-cleavage is 0.04.

GGUCGAGCUCAACACAGUGUGGCAAACUGGCUGUGGCUGGACUGCC: the self-cleavage came out at 0.01.

With GGUGGCGCUCAACACAGCGUGGCAAAGUAGCUGUGGCUAGACUGCC, the self-cleavage stood at 0.14.

GGUGGAGCUCAACACAGCGUGGCAAAGUGGCUGUGGCUAGACUGAC: the self-cleavage was found to be 0.08.

In the case of GGGAGAGCUCAACACAGCGUGGCAAAGUGGCUGUGUAUAGACUGCC, the self-cleavage was determined as 0.1.

Turning to GGUGGAGCUCAAAACAGCGUGGAAAAGUGGCUGUGGCUAGACUGCC, the self-cleavage was found to be 0.2.

In the case of GGUUGAGCUCAACACGGCGUGGCAAAGUGGCAGUGGCUAGACUGCC, the self-cleavage stood at 0.03.

For GGUCAAGCUCAACACAGCGUGGCAAAGUAGCUGUGGCUCGUCUGCC, the self-cleavage came out at 0.25.

Take GGGAGAGCUCAACACAGCGUGGCAAAGCGGCUGUGGCUAUACUGCC: the self-cleavage came to 0.06.

Turning to GGGAGAGCUCAACACAGCGUGGCAAAGUGGCGGUUGCUAGACUGCC, the self-cleavage turned out to be 0.11.

Consider GGUGGAGCUCAACACAGCGUGGCAAAAUGGCUGUGGCUCGACUGCC, for which the self-cleavage was determined as 0.03.

Take GGGAGAGCACAACACAGACUGGCAAAGUGGCUGUGGAUAGACUGUC: the self-cleavage stood at 0.29.

Turning to GGGAGAGCACAACACAGCGUGGCAAAGUGGCUUUGGCUAGACUGCC, the self-cleavage was determined as 0.24.

As for GGGAGAGCUCAACACAGCGUGGCAAAGUGGCAGUGGCUAGAAUGCC, the self-cleavage stood at 0.06.

As for GGGAGAGCUCAACACAGCGGGGCAAAGUGGCUGUGGCCAGACUGCC, the self-cleavage was 0.08.

For the variant GGGAGAGCUCAACACAGCGUGGCAAAGUAGCUAUGGCUAGACUGCC, the self-cleavage is 0.16.

Take GGGAGAGCUCAACACAGCGUGGCAAAGUGGCGCUGGCUAGACUGCC: the self-cleavage is 0.04.

Regarding GGGAGAGCUCAACACAGCGCGGCAAAUUGGGUGUGGCGAGACUGCC, the self-cleavage is 0.21.

Take GGGAGAGCUCAACACAGCGUGGCAAAGUGGCUGUAGUUAGACUGCC: the self-cleavage turned out to be 0.02.

As for GGGAGAGCCCAACACAGCGUGGAAAAGUCGCUGUCGCUAGACUGCC, the self-cleavage was 0.01.

GGGAGAGCUCAACACAGCGUGGCAAAGUGGCUGUAACUAAACUGCC: the self-cleavage turned out to be 0.48.

With GGGAGAGCUCAACACAGCGUGGCAAAGUGGCACUGGCUAGACUGCC, the self-cleavage worked out at 0.36.

With GGGAGAGCUCAACACAGCGUGGCAAAGUGGCUUUGUCUAGACAGCC, the self-cleavage is 0.19.

For the variant GGGAGAGCUCAACACAGCGAGGCAAAGUGGCUGUGGUUAGACUGCG, the self-cleavage was 0.06.

Consider GGUCGAGCUCAAUACAGCGUGGCAAAGUGGCUGUGGCUAGACUGCC, for which the self-cleavage amounted to 0.09.

Turning to GGUGGAGCUCCACACAGCGUGGCAAAGUGGCUGUUGCUAGACUGCC, the self-cleavage is 0.01.

Take GGGAGAGCACAACACAGCGUGUCAAUGUGGCUGCGGCUAGACUGCC: the self-cleavage was found to be 0.1.

For GGUCGAGCUUAACAUAGCGUGGCAAAGUAGCUGUGGCUAGACUGCC, the self-cleavage was 0.28.

For GGGAGAGCUCAACACAGCGGGGGAAAGUGGCUGUGGCUAGACUGCC, the self-cleavage worked out at 0.01.

As for GGGAGAGCUCAACACAGCGAGGUAAAGUGGCUGUGGCUAGACUGCC, the self-cleavage amounted to 0.24.

GGGAGAGCUCAACACAGCGUGGCAAAGUUGCUGUGGCUAGACAGCC: the self-cleavage amounted to 0.15.

Regarding GGUGGAUUUCAAAACAGCGUGGCAACGUGGCUGUUGCUAGACUGCC, the self-cleavage came out at 0.33.

Take GGGAGAGCUCAACACAGCGUGGCAAAGUGGCUGUUGCUAGACUGGC: the self-cleavage is 0.05.

For GGGAGAGCACAACACAGCGUGGCACAGUGGCUGUGGCUAGACUGCC, the self-cleavage was determined as 0.03.

Take GGGAGAGCUCAACACAGCGGGGCAAAGUGGCUGCGGGUAGACUGCC: the self-cleavage was determined as 0.17.

On to GGGAGAGCCCACCACAGCGUGGCAAAGUGGCUAUGGCUAGACUGCC, for which the self-cleavage turned out to be 0.02.

GGUCGGGCUCAACACAGCGUGGCAAAGUUGCUGUGGCUAGACUGCC: the self-cleavage was determined as 0.12.

With GGGAGAGCUCAACACAGCGUGGCAAAGUGGCUGCGGCUAGACUCCC, the self-cleavage came out at 0.12.

Take GGGAGAGCGCAACACAGCGUGGCAAACUGGCUGUGGGAUGACUGCC: the self-cleavage turned out to be 0.1.

Regarding GGGAGAGCACAACACAGCGUGGCAAAGUGGCUAUGGCCAGACUGCC, the self-cleavage turned out to be 0.26.

Consider GGUCGAGCUCAACACAGCGUGUCAAAGUGGCUGUGGCUAGACUGCC, for which the self-cleavage worked out at 0.2.

Consider GGGAGAGCUCAACACAGCGGGGCAAAGUGAUUCUGGCUAGACUGCC, for which the self-cleavage is 0.09.

Regarding GGUGGAGCUCAACACAGCGUGGCAUAGUGGCUGUGGCUAGACUGCC, the self-cleavage amounted to 0.62.
